Experimental data published in the supplement of paper PMC5499739.
In all, about 16,000 sequences were measured (“Z-score”: median about -0.37, highest 2% from about 3.1 on). The list shows a part of the results.

System: RBM10 RRM1-ZnF-RRM2 (GST-tagged construct)
Test: RNAcompete 7-mer binding Z-score; higher = stronger binding preference
Outline: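 A designed pool of 241 399 RNAs, each up to 41 nt and transcribed from microarray-derived DNA templates, was used at 1.5 nmol with 20 pmol of GST-tagged RBM10 constructs. The mixture, in 1 ml Hepes pH 7.8 buffer with KCl, NaCl, glycerol, DTT, BSA and glutathione Sepharose beads, was held 30 min at 4°C and then washed four times for 2 min at 4°C. Bound RNA was read out by microarray hybridisation, and enrichment of each heptamer motif was scored as a one-sided Z-score over the probes carrying it.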

Point of comparison: GCCGAUC, “RNAcompete 7-mer binding Z-score” value -0.744. Against it:
- ACUGACU — higher, -0.686
- UUGGGUU — higher, 2.05
- AGUCGGG — higher, 1.66
- ACAGUUA — higher, -0.205
- ACAGCUC — lower, -0.832
- AGUCUUU — higher, -0.65
- UAUCAUC — higher, -0.65
- CAAUAUA — higher, -0.482
- GCUGUGU — higher, -0.3
- GGUGCAC — higher, 0.931
- AGCCCGC — higher, -0.668
- AUUUGAU — higher, -0.398
- UACCGGU — higher, -0.173
- UACGUGA — higher, -0.154
- AACCCCA — higher, -0.675
- GCAGCAC — higher, -0.242
- AAGUUGA — higher, 0.749
- GGGGAAC — higher, 2.58
- UCAGAUC — higher, -0.471
- ACUCGAU — higher, -0.595
- ACGCAGC — higher, -0.53
- GAAUGGG — higher, 4.77
- GCCCCAG — higher, -0.391
- GCUCAAC — higher, -0.643
- UGAUCAU — higher, -0.457
- GUGCUUA — higher, -0.347
- CAUCGUA — higher, -0.468
- AUACGCC — lower, -0.752
- UAACAUG — higher, -0.0343
- GGAAUUA — higher, 0.862
- AAUGAAU — higher, -0.111
- GGUACCU — higher, 0.0568
- AUCUGCC — lower, -0.883
- UAAGAGC — higher, -0.0525
- ACUAGCG — higher, -0.103
- ACGGCUA — higher, -0.453
- AUCGGCA — higher, 0.0313
- CCGUGAC — higher, -0.311
- GGCGAGC — higher, 1.87
- AGUCAGU — higher, 0.13
- AAGGGGG — higher, 3.91
- GGGCCUG — higher, 0.0167
- UGCCGUU — lower, -0.766
- CAAAACG — higher, 0.17
- GUAGUGG — higher, 2.49
- AAUUCAC — higher, -0.643
- ACUUACC — lower, -0.814
- UAAUCCC — lower, -0.785
- CGGAUUU — higher, -0.34
- AUCGUAA — higher, -0.377
- CAUCCAG — higher, -0.49
- CCGUCCU — lower, -0.872
- GUUUCGC — higher, -0.442
- AGUCCAU — higher, -0.646
- AGUACGA — higher, 0.286
- AGUUCGA — higher, -0.519
- CAUCGCU — lower, -0.843
- UUACCAU — higher, -0.628
- GCAGCAG — higher, 0.778
- UAGCGAA — higher, 0.137
- CAGCGCU — higher, -0.22
- AUUAGGA — higher, 2.05
- CACCUCC — higher, -0.657
- UCACUCC — lower, -0.766
- AAUAUCA — higher, -0.322
- UCGGGAU — higher, 1.08
- CAAAUUU — higher, -0.708
- ACUAUGC — higher, -0.683
- GGGCGAU — higher, 1.75
- CGUUCCA — higher, -0.73
- CAAUAAA — higher, -0.497
- CUUACAU — lower, -0.843
- AGCCCCU — higher, -0.646
- ACUUGUU — lower, -0.919
- UCAAGGC — higher, 0.202
- GAAGUCU — higher, -0.588
- UCCUGGC — lower, -0.752
- CAGAGGG — higher, 2.33
- CAGAUGU — higher, -0.0452
- CGGUGGA — higher, 2.27
- CUUUUGG — higher, -0.482
- AUAACCG — higher, -0.653
- GGCCGAA — higher, -0.136
- UCUAUUU — lower, -0.81
- ACGGGCA — higher, 1.87
- GUCGAUU — higher, -0.271
- AACACGG — higher, 0.654
- CGUGUAG — higher, 0.61
- CCUUUGU — lower, -0.887
- UCCGGUG — higher, 0.0896
- GCGCCCC — higher, -0.369
- GACUUAC — lower, -0.81
- CUGCCAU — lower, -0.923
- AUGUAUC — higher, -0.468
- CGAUUUA — higher, -0.704
- GGCGUAC — higher, 0.607
- UAGAGUA — higher, 0.621
- CACCUGA — lower, -0.799
- UGUGAUU — higher, -0.544
- ACCCGUG — higher, -0.588
- AUGGUCU — higher, -0.369
- GGGGGGU — higher, 3.13
- UCCUCUA — lower, -0.836
- GAUCAGU — higher, 0.246
- CUGGCUC — higher, -0.726
- GGCCUCU — lower, -0.799
- UGCUGGC — higher, -0.0707
- GUUCAGA — higher, -0.0853
- AAUCGGC — higher, -0.216
- ACUCCCA — lower, -0.996
- GACUCGU — higher, -0.653
- GCGGGGU — higher, 3.77
- GGACACC — higher, 0.665
- UCAUAGC — higher, -0.73
- ACCUGAA — lower, -0.785
- CAAAAGU — higher, -0.333
- GGUGCGC — higher, 1.5
- CCUGGUC — higher, -0.621
- UCAAAUC — higher, -0.741
- UUUACGG — higher, -0.282
- AUAUGGC — higher, 0.428
- GCAAACA — higher, 0.192
- UCGGACU — higher, -0.406
- AGGCGGG — higher, 2.73
- AAUCCAC — higher, -0.551
- GACACCU — lower, -0.868
- CUCAUGU — lower, -0.77
- AACCUUU — lower, -0.861
- CUGGUUA — higher, -0.165
- AUAACCC — higher, -0.599
- CCCUACG — higher, -0.712
- AAAACUA — higher, -0.34
- GUUGCGA — higher, 0.224
- UGUCCCA — higher, -0.515
- GAUUAGA — higher, 0.257
- UGGGAUU — higher, 1.63
- CGGGAAG — higher, 2.07
- GCCAGGA — higher, 0.625
- CCAGUUA — higher, -0.683
- CACCGAA — higher, -0.595
- UUGGCUU — higher, -0.606
- AGCGGCA — higher, 1
- CGUACAC — higher, -0.482
- GGGAUAG — higher, 3.83
- GCUAAUA — higher, -0.282
- UUCGUAC — higher, -0.5
- ACCCUGC — lower, -0.927
- AACAUCU — lower, -0.748
- AAGUCGG — higher, 0.796
- UUCCUGG — higher, -0.515
- GGAGUCU — higher, 0.388
- AGCAACG — higher, 0.359
- ACACCCU — lower, -0.941
- UGUCUGG — higher, -0.0853
- CUCCUCU — higher, -0.704
- CCAUAUA — higher, -0.632
- ACAGACC — higher, -0.635
- UUGAUGU — higher, -0.347
- CCAUUAC — higher, -0.715
- UUGUGCC — higher, -0.628
- GACUUAG — higher, -0.267
- UUACGAU — higher, -0.439
- UGUCGAG — higher, 0.024
- GAGAAAA — higher, 0.519
- CCUUUGG — higher, -0.592
- CUGCACU — higher, -0.672
- GAAUGCG — higher, 0.545
- CGCAGCU — higher, -0.61
- UUCGCUG — lower, -0.799
- UACUAAA — higher, -0.599
- GUCUGCC — higher, -0.646
- GUUAAUG — higher, 0.636
- AGCAGUC — higher, -0.169
- GAUAUAC — higher, -0.202
- UUUAUCG — higher, -0.668
- CUUUAAG — lower, -0.887
- UGAACAC — higher, -0.428
- UUUUAAA — higher, -0.741
- GUGCUUG — higher, -0.231
- CUGAGUG — higher, 0.283
- CAUUCGG — higher, -0.246
- AUCGGCC — higher, -0.741
- GCGUAUG — higher, 0.37
- UAGACGA — higher, 0.184
- AAGAUCC — higher, -0.643
- CGUAGUG — higher, 0.457
- GACAUCA — higher, -0.337
- UAGGGAG — higher, 3.15
- AGUCCAC — higher, -0.511
- GAGGCUC — higher, -0.0525
- UGUUCCU — lower, -0.865
- CUCACUG — higher, -0.719
- GACGUGG — higher, 1.84
- UGCUGGU — higher, 0.0422
- GUGAGGC — higher, 1.86
- UAACUGA — higher, -0.329
- UUGCCAU — lower, -0.897
- AAGACUU — higher, -0.537
- ACAAUGA — higher, 0.0313
- CUCGAAA — higher, -0.493
- GGUGGCU — higher, 0.927
- GUCUAAA — higher, -0.588
- AGAGGUC — higher, -0.0488
- AACAGAG — higher, 0.967
- CCAGGAU — higher, 0.49
- UCCAACG — higher, -0.493
- GGUAGAA — higher, 2.43
- GUUAAAU — higher, -0.0962
- UUGAGGU — higher, 1.29
- CGAACAA — higher, 0.0823
- UCGGUGU — higher, 0.235
- AGGUUAC — higher, 0.538
- UAUCCAU — higher, -0.326
- GCCCUAA — higher, -0.712
- UGCUUUU — lower, -0.872
- GUCCGGU — higher, -0.0233
- CCAGGGC — higher, 1.13
- CAGAUGG — higher, 1.55
- UCACCAC — higher, -0.562
- UUCAAUA — higher, -0.151
- UAUCUGC — higher, -0.555
- ACAGUCG — higher, -0.173
- ACCCUGG — higher, -0.329
- CGGUCGA — higher, 0.141
- CCCCACG — higher, -0.358
- CUCUAGA — lower, -0.817
- UCUUCCG — lower, -0.763
- GAAGGAA — higher, 4.54
- UGUCCCU — lower, -0.795
- CGCAGUU — higher, -0.675
- GAGUGUG — higher, 1.72
- CGUACUU — lower, -0.799
- AAAGACA — higher, 0.144
